B1: PhoQ; a variant is named by its letters at X, in order, P23837 (parent)
chain: MKKLLRLFFPLSLRVRFLLATAAVVLVLSLAYGMVALIGYSVSFDKTTFRLLRGESNLFYTLAKWENNKLHVELPENIDKQSPTMTLIYDENGQLLWAQRDVPWLMKMIQPDWLKSNGFHEIEADVNDTSLLLSGDHSIQQQLQEVREDDDDAEMTHSVAVNVYPATSRMPKLTIVVVDTIPVELKSSYMVWSWFIYVLSANLLLVIPLLWVAAWWSLRPIEALAKEVRELEEHNRELLNPATTRELTSLVRNLNRLLKSERERYDKYRTTLTDLTHSLKTPLXXLQXXLRSLRSEKMSVSDAEPVMLEQISRISQQIGYYLHRASMRGGTLLSRELHPVAPLLDNLTSALNKVYQRKGVNISLDISPEISFVGEQNDFVEVMGNVLDNACKYCLEFVEISARQTDEHLYIVVEDDGPGIPLSKREVIFDRGQRVDTLRPGQGVGLAVAREITEQYEGKIVAGESMLGGARMEVIFGRQHSAPKDE

The list shows a part of the results.

In the test the parent is B1. Put plainly: enrichment ratio after two sorts for PhoP signalling (ratio (wild type AVST 3.29)); higher = more functional. The settings on record: with PhoP (E. coli).
As to DICQ, the enrichment ratio was ≤ 0.25. For QVHR the value was ≤ 0.25; for RIDV, ≤ 0.25. As for GCLR, the enrichment ratio is ≤ 0.25. As to LLFT, the enrichment ratio is ≤ 0.25. As for CSIH, the enrichment ratio was ≤ 0.25. As for WMSH, the enrichment ratio was ≤ 0.25. Take MEIS: the enrichment ratio turned out to be 13.8. For YPYS the value was ≤ 0.25; for LIRQ, ≤ 0.25.

Consider PQKP, for which the enrichment ratio is ≤ 0.25. Consider LDIV, for which the enrichment ratio is ≤ 0.25. As for KMCF, the enrichment ratio was ≤ 0.25.

As for WQLL, the enrichment ratio was ≤ 0.25. As for LIKC, the enrichment ratio is ≤ 0.25. For LEEV the value was ≤ 0.25.

As for CAYI, the enrichment ratio is ≤ 0.25. For the variant GTEM, the enrichment ratio was ≤ 0.25. For MMTV, the enrichment ratio is ≤ 0.25. Consider NPEH, for which the enrichment ratio was ≤ 0.25.

With DLEC, the enrichment ratio was ≤ 0.25. As to QCRE, the enrichment ratio was ≤ 0.25. For HSEK, the enrichment ratio was ≤ 0.25.

Turning to GDTW, the enrichment ratio is ≤ 0.25. NGSP: the enrichment ratio is ≤ 0.25. For MHQV, the enrichment ratio was ≤ 0.25.

With TRTK, the enrichment ratio is ≤ 0.25. With AHKW, the enrichment ratio is ≤ 0.25. Consider RCAN, for which the enrichment ratio is ≤ 0.25. In the case of FRVH, the enrichment ratio is ≤ 0.25. For PIRC the value was ≤ 0.25; for KVFV, ≤ 0.25. Then EVPR, with ≤ 0.25. For KMQS the value was ≤ 0.25. Take YHVM: the enrichment ratio is ≤ 0.25.

On to LVRF, for which the enrichment ratio is ≤ 0.25. Consider SRSY, for which the enrichment ratio was ≤ 0.25. Take PLTT: the enrichment ratio was ≤ 0.25. Then LPCK, with ≤ 0.25; and HQRK, with ≤ 0.25. Regarding GVLM, the enrichment ratio was determined as 9.19. Then FYSQ, with ≤ 0.25.

On to IRFD, for which the enrichment ratio is ≤ 0.25. YGNH: the enrichment ratio was ≤ 0.25.

With LARD, the enrichment ratio was ≤ 0.25. Take ALAN: the enrichment ratio is 1.92.

Turning to QPVI, the enrichment ratio is ≤ 0.25. As to PPGC, the enrichment ratio is ≤ 0.25.

On to TYMN, for which the enrichment ratio is 0.285. Turning to VIKG, the enrichment ratio was ≤ 0.25.

HSNY: the enrichment ratio is ≤ 0.25. Take QWSL: the enrichment ratio is ≤ 0.25. Consider VPDY, for which the enrichment ratio was ≤ 0.25.

Turning to SLEQ, the enrichment ratio is ≤ 0.25. Regarding VHKY, the enrichment ratio is ≤ 0.25. PFTT: the enrichment ratio was ≤ 0.25. For SPNY the value was ≤ 0.25. For ITME, the enrichment ratio is ≤ 0.25. For the variant TMAF, the enrichment ratio was 5.19.

Take WAYE: the enrichment ratio is ≤ 0.25. For IVWP the value was ≤ 0.25; for MSHS, ≤ 0.25. On to HNCK, for which the enrichment ratio is ≤ 0.25. In the case of GYMK, the enrichment ratio was ≤ 0.25.

Turning to KYKF, the enrichment ratio was ≤ 0.25.

Turning to LSGS, the enrichment ratio is ≤ 0.25. Consider RCHD, for which the enrichment ratio is ≤ 0.25. With YTSL, the enrichment ratio is ≤ 0.25.

For the variant DEPR, the enrichment ratio was ≤ 0.25. With MSPY, the enrichment ratio is ≤ 0.25. Regarding MCKR, the enrichment ratio is ≤ 0.25.

Take DYKL: the enrichment ratio is ≤ 0.25. For WNTV, the enrichment ratio is ≤ 0.25. As for DRDM, the enrichment ratio worked out at 1.77. With GMIW, the enrichment ratio is ≤ 0.25.

As to AFYL, the enrichment ratio was ≤ 0.25. As to TGCD, the enrichment ratio came to 0.285. On to FPRP, for which the enrichment ratio was ≤ 0.25. Take MFWM: the enrichment ratio was ≤ 0.25. As to WQFL, the enrichment ratio is ≤ 0.25. For QPWN the value was ≤ 0.25. With RNNE, the enrichment ratio is ≤ 0.25. As to WRDS, the enrichment ratio was ≤ 0.25.

With YVVY, the enrichment ratio was ≤ 0.25. ETKI: the enrichment ratio was ≤ 0.25. For HVLN, the enrichment ratio was ≤ 0.25. In the case of EFLM, the enrichment ratio is ≤ 0.25. In the case of VPTV, the enrichment ratio is ≤ 0.25. For MHIQ the value was ≤ 0.25. As to WCIY, the enrichment ratio was ≤ 0.25.

As to KIWR, the enrichment ratio is ≤ 0.25. YNKT: the enrichment ratio was ≤ 0.25. Turning to VFIM, the enrichment ratio is ≤ 0.25.

Consider DKEY, for which the enrichment ratio was ≤ 0.25. HHGG: the enrichment ratio is ≤ 0.25. On to YMAM, for which the enrichment ratio is ≤ 0.25. Regarding PWHI, the enrichment ratio was ≤ 0.25.

EGTG: the enrichment ratio is ≤ 0.25. TPGN: the enrichment ratio was ≤ 0.25. Consider HQAV, for which the enrichment ratio was ≤ 0.25.

For the variant RGIV, the enrichment ratio is ≤ 0.25. In the case of GGTG, the enrichment ratio was ≤ 0.25. In the case of YIYS, the enrichment ratio was ≤ 0.25. Turning to SDNT, the enrichment ratio was ≤ 0.25. WGDP: the enrichment ratio is ≤ 0.25. For DWDV the value was ≤ 0.25. For EYFA the value was ≤ 0.25; for FYVE, ≤ 0.25; for IEWA, ≤ 0.25. NLNI: the enrichment ratio is ≤ 0.25. For FVNR the value was ≤ 0.25; for IESC, ≤ 0.25. For EHIR the value was ≤ 0.25; for VIWN, ≤ 0.25; for RSQD, ≤ 0.25. For HDWI, the enrichment ratio was ≤ 0.25. Consider TPNM, for which the enrichment ratio was ≤ 0.25. On to TSKP, for which the enrichment ratio was ≤ 0.25. Regarding YDPY, the enrichment ratio was ≤ 0.25. Turning to LMAT, the enrichment ratio was ≤ 0.25.

For DYAA, the enrichment ratio was ≤ 0.25. In the case of EAIG, the enrichment ratio is ≤ 0.25.

Regarding HRSQ, the enrichment ratio was ≤ 0.25. Take YRLW: the enrichment ratio is ≤ 0.25.

VCWK: the enrichment ratio was ≤ 0.25. In the case of WEFV, the enrichment ratio was ≤ 0.25. Consider MMER, for which the enrichment ratio is ≤ 0.25.

With RHSA, the enrichment ratio was ≤ 0.25.

Turning to SHVL, the enrichment ratio amounted to 2.8. Turning to NSAS, the enrichment ratio is ≤ 0.25. Take LGWS: the enrichment ratio is ≤ 0.25.

SCHT: the enrichment ratio is ≤ 0.25. For the variant MGGR, the enrichment ratio was ≤ 0.25. As for MDMW, the enrichment ratio was ≤ 0.25. As for YNND, the enrichment ratio is ≤ 0.25. Then TNFG, with ≤ 0.25; and HYQW, with ≤ 0.25. Then LNAF, with ≤ 0.25; and LSLK, with ≤ 0.25. Consider MAYH, for which the enrichment ratio was 3.4. With HNAR, the enrichment ratio was ≤ 0.25. For the variant PSDS, the enrichment ratio was ≤ 0.25.

Regarding EVMH, the enrichment ratio is ≤ 0.25.

ARAF: the enrichment ratio is ≤ 0.25. Turning to ICFL, the enrichment ratio was ≤ 0.25. For SYTS the value was ≤ 0.25; for GVIV, ≤ 0.25. WGER: the enrichment ratio was ≤ 0.25. Then FVLI, with 2.52.

On to NYMH, for which the enrichment ratio was ≤ 0.25. For IYQN the value was ≤ 0.25. As for GSQL, the enrichment ratio came to 0.629. Turning to HELT, the enrichment ratio is ≤ 0.25.
